#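 Exposure lasted 48 hours, with cells grown in 96-well plates and compounds tested at five concentrations. Abbreviation: GI50, concentration required for 50% inhibition of growth.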 The source made the active and inactive calls. Rule as the data show it: active = GI50 up to about 1.1 µM and inactive = higher.
# System: NCI-H322M
# Test: NCI tumour cell line growth inhibition, 48 h
row,Structure (SMILES),GI50
1,c1csc(-c2ccc(-c3ccsc3)s2)c1,inactive: > 100 µM
2,COc1cc(C2S/C(=C/c3ccccc3)C(=O)N2c2ccc(Cl)c(Cl)c2)cc(OC)c1OC (stereo not drawn),inactive: 32.3 µM
3,O=c1[nH]c2ccc(CC(=S)N3CCOCC3)cc2s1,inactive: > 100 µM
4,COC(=O)C1=C(OC(=O)/C(=C/c2ccc(Cl)cc2Cl)c2ccc(Cl)cc2Cl)C(C(=O)OC)[C@@]2(O)[C@@H](C(=O)OC)[C@H](C)C[C@@H]1[C@@H]2C(=O)OC (stereo partly drawn),inactive: > 100 µM
5,CCC1=CCC23C(=O)C=CC(=O)C2(C1)C(=O)c1cccc(OC)c1C3=O (stereo not drawn),inactive: 30.3 µM
6,COc1cccc2c1C(=O)c1c(O)c3c(c(O)c1C2=O)C[C@@](O)(C(C)=O)C[C@@H]3OC1CC(N(C)C)C(O)C(C)O1 (stereo partly drawn),active: 0.0035 µM
7,CCC1NC(/N=N/c2ccc([N+](=O)[O-])cc2)(P(=O)(OC(C)C)OC(C)C)OC1=O (stereo not drawn),inactive: > 100 µM
8,CCOC(=O)c1ccc(NC(NC(=O)CC)(C(F)(F)F)C(F)(F)F)cc1,inactive: > 100 µM
9,Cc1c(C)n(-c2ccccc2)c2nc(S(C)(=O)=O)nc(S(C)(=O)=O)c12,inactive: 18.7 µM
10,CN(C)CCn1c(=O)c2ccc3c4c(nn3CCN(C)C)c3ccccc3n(c1=O)c24,active: < 0.124 µM
11,C#CCn1c(=O)c(C)cn(/C(=C/C(=O)OCC)C(=O)OCC)c1=O,inactive: 20.4 µM
12,COC(=O)C1CC/C(=N/c2ccc(C)cc2C)N1 (stereo not drawn),inactive: > 100 µM
13,NC(CSC(=O)c1ccccc1)C(=O)O (stereo not drawn),inactive: > 100 µM
14,C/N=c1\sc2c(n1C)C(=O)c1ccccc1C2=O,inactive: 2.1 µM
15,COC(=O)C1CCC(=S)N1C(C)=O (stereo not drawn),inactive: 7.6 µM
16,CCOC(=O)c1ccc(/N=C/C=C(\Nc2ccc(C(=O)OCC)cc2)C23CC4CC(CC(C4)C2)C3)cc1,inactive: 82.4 µM
17,COc1ccc(CCNC(=O)CCc2ccccc2CO)cc1OC,inactive: > 100 µM
18,O=c1[nH]c2ccccc2n1C1CCN(CCCC(c2ccc(F)cc2)c2ccc(F)cc2)CC1 [PIMOZIDE],inactive: 10.1 µM
19,COc1c2c(cc3c1C(=O)c1c(O)cccc1C3=O)CC(O)CC2 (stereo not drawn),inactive: 39.5 µM
20,COc1cc(/C=N/c2ccccn2)cc(OC)c1OC,inactive: > 100 µM
21,C[C@@H]1CC2(C[C@@H](C)C3[C@@H](CC4(C)CCCC5C6=CC(O)(CC[C@]34C)OC6=CC(=O)OC5(C)C)O2)OC1=O (stereo partly drawn),inactive: > 100 µM
22,O=c1nc(NC(c2ccccc2)(c2ccccc2)c2ccccc2)ccn1CCNCCn1ccc(NC(c2ccccc2)(c2ccccc2)c2ccccc2)nc1=O,inactive: 10.8 µM

row,Structure (SMILES),GI50
1,CS(=O)(=O)N1CC(CCl)c2ccc(NCCN)cc21 (stereo not drawn),inactive: 40.8 µM
2,N#CC1=C(N)n2c(s/c(=C\c3ccc(Cl)cc3)c2=O)=C(c2nc3ccccc3[nH]2)C1c1ccc(Cl)cc1 (stereo not drawn),active: 0.897 µM
3,CC1(C)OC2C(=O)C=C(COCc3ccccc3)C2O1 (stereo not drawn),inactive: 26.9 µM
4,CC(C)OC(=O)c1ccc(NCc2cc(O)ccc2O)cc1,inactive: 9.35 µM
5,O=C1c2ccccc2C(=O)c2[nH]c(Cc3ccccc3F)nc21,inactive: > 100 µM
6,O[C@@]12Cc3c([nH]c4ccccc34)[C@@H]3Oc4c(-c5ccccc5)ccc5c4[C@@]31CCN(CC1CC1)[C@@H]2C5,inactive: 1.95 µM
7,COc1cc(C2C3=C(CCCC3=O)N(c3ccc(C)cc3)C3=C2C(=O)CCC3)c([N+](=O)[O-])cc1OC,inactive: 35.7 µM
8,CCOC(=O)c1c(N2CCOCC2)[nH]c(=O)c(C(c2ccco2)c2c(O)c(C(=O)OCC)c(N3CCOCC3)[nH]c2=O)c1O,inactive: > 100 µM
9,COc1cccc(C(=O)Nc2c3ccccc3nc3ccccc23)c1OC,inactive: > 100 µM
10,N#CCCOCN(CO)c1nc(N(CO)COCCC#N)nc(N(CO)COCCC#N)n1,inactive: 40.5 µM
11,C=C1C(=O)OC2C3C(=C)[C@@H](OC(C)=O)CC3C(C)=CC(OC(=O)C(C)(OC(C)=O)C(C)OC(C)=O)[C@@H]12 (stereo partly drawn),inactive: 69.5 µM
12,CC(=O)Oc1ccc2c(c1)c1c(=O)oc(C)nc1n2Cc1ccccc1,inactive: 51.2 µM
13,[N-]=[N+]=NI1OC(C(F)(F)F)(C(F)(F)F)c2ccccc21,inactive: 17.2 µM
14,O=C(O)CNS(=O)(=O)c1ccc(NC(=O)c2ccc([N+](=O)[O-])cc2)cc1,inactive: > 100 µM
15,N#C[BH2-][n+]1cn(C2CC(O)C(COP(=O)(O)OC3CC(n4cnc5c(=O)[nH]c(N)nc54)OC3CO)O2)c2nc(N)[nH]c(=O)c21 (stereo not drawn),inactive: > 100 µM
16,C=CC(=O)N1C/C(=C\c2ccc(OC)cc2)C(=O)/C(=C/c2ccc(OC)cc2)C1,inactive: 4.32 µM
17,Nc1nc(Cl)c(N)c(NCC2(CO)CCC2)n1,inactive: > 100 µM
18,C[N+](C)(C)CC(=O)N/N=C(/Cc1nc2ccc([N+](=O)[O-])cc2nc1O)C(=O)Nc1cc(C(F)(F)F)ccc1Cl,inactive: > 100 µM
19,CCCCC/C=C1/CC(CO)(COC(=O)CC(C(C)C)C(C)C)OC1=O (stereo not drawn),inactive: 18.1 µM
20,C[C@]12CC[C@H]3[C@@H](CCC4=C(Br)C(=O)C=C[C@@]43O)[C@@H]1CCC2=O,inactive: 95.1 µM
21,O=C1Nc2cc(Cl)ccc2C(=O)N2CCC[C@@H]12,inactive: > 100 µM
